This passage reports HCT116-GFP viability results from the supplement of paper PMC9938546.

Structures are written as SMILES. Counter-ions that a name gives are not always drawn. This is one part of the list. Most values come without repeats; read them as rough.
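Also: viability estimated indirectly by image-based GFP quantification with live-cell imaging of the constitutively GFP-expressing human colorectal cancer line, no immune cells added.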

For the assay, the system named is HCT116-GFP. Put plainly: HCT116-GFP viability (GFP intensity) relative to untreated control, monoculture; higher = less cancer cell killing. The following applies: culture: HCT116-GFP monoculture; 10 µM; 72 h.
Consider `O=C(O[C@@H]1C[C@@H]2C[C@H]3C[C@H](C1)N2CC3=O)c1c[nH]c2ccccc12` [Dolasetron mesilate], for which the HCT116-GFP viability came out at 97.3%.

Regarding `CC(C)(C)NC(=O)[C@@H]1CN(Cc2cccnc2)CCN1C[C@@H](O)C[C@@H](Cc1ccccc1)C(=O)N[C@H]1c2ccccc2C[C@H]1O` [Indinavir sulfate], the HCT116-GFP viability came to 45.3%.

With `CC(C)(C)NCC(O)c1ccc(O)c(CO)c1` (stereo unspecified) [Salbutamol], the HCT116-GFP viability came out at 87.8%.

On to `Cc1c(OCC(F)(F)F)ccnc1C[S+]([O-])c1nc2ccccc2[nH]1` (stereo unspecified) [Lansoprazole], for which the HCT116-GFP viability was 98.8%.

Consider `Cn1c(=O)c2c(ncn2C)n(C)c1=O` [Caffeine], for which the HCT116-GFP viability was found to be 103%.

Consider `O=C(O)c1cc(=O)c2c(OCC(O)COc3cccc4oc(C(=O)O)cc(=O)c34)cccc2o1` [Cromolyn disodium salt], for which the HCT116-GFP viability turned out to be 97.8%.

Consider `Cc1ccc(O)c([C@H](CCN(C(C)C)C(C)C)c2ccccc2)c1` [Tolterodine tartrate], for which the HCT116-GFP viability was found to be 29.3%.

As to `C=CCc1ccccc1OCC(O)CNC(C)C` (stereo unspecified) [Alprenolol hydrochloride], the HCT116-GFP viability amounted to 107%.

As to `NC[C@H]1CC[C@H](C(=O)O)CC1` [Tranexamic acid], the HCT116-GFP viability is 104%.

`CCCCOc1ccc(CC(=O)NO)cc1` [Bufexamac]: the HCT116-GFP viability came out at 106%.

On to `CC(=O)OC(C)C[N+](C)(C)C` (stereo unspecified) [Methacholine chloride], for which the HCT116-GFP viability amounted to 103%.

With `CCSc1ccc2c(c1)N(CCCN1CCN(C)CC1)c1ccccc1S2` [Thiethylperazine dimalate], the HCT116-GFP viability stood at 47.6%.

With `Cc1c(O)cccc1C(=O)N[C@@H](CSc1ccccc1)[C@H](O)CN1C[C@H]2CCCC[C@H]2C[C@H]1C(=O)NC(C)(C)C` [Nelfinavir mesylate], the HCT116-GFP viability was determined as 46.6%.

Regarding `CN(C)CCC(c1ccccc1)c1ccccn1` (stereo unspecified) [Pheniramine maleate], the HCT116-GFP viability came to 100%.

For the compound `CCN(CCCc1ccccc1)CCCc1ccccc1` [Alverine citrate salt], the HCT116-GFP viability is 98.2%.

As to `O=P(O)(O)C(O)(Cc1cccnc1)P(=O)(O)O` [Risedronic acid monohydrate], the HCT116-GFP viability was determined as 45.5%.

`CCN(CC)C(=O)N1CCN(C)CC1` [Diethylcarbamazine citrate]: the HCT116-GFP viability turned out to be 91%.

Regarding `C=CC[N@@+]12CC[C@@]34c5ccccc5N5/C=C6/[C@H]7C[C@H]8[C@@]9(CC[N@@+]8(CC=C)C/C7=C/CO)c7ccccc7N(/C=C(/[C@@H](C[C@@H]31)/C(=C\CO)C2)[C@H]54)[C@@H]69` [Alcuronium chloride], the HCT116-GFP viability came to 90.2%.

As to `CCCC(C(=O)OCCN(CC)CC)(c1ccccc1)c1ccccc1` [Proadifen hydrochloride], the HCT116-GFP viability was 89%.

In the case of `Clc1ccccc1C(c1ccccc1)(c1ccccc1)n1ccnc1` [Clotrimazole], the HCT116-GFP viability turned out to be 42.1%.

With `Clc1ccc(COC(Cn2ccnc2)c2ccc(Cl)cc2Cl)cc1` (stereo unspecified) [Econazole nitrate], the HCT116-GFP viability turned out to be 56.6%.

As for `CNC1(C)C2CCC(C2)C1(C)C` (stereo unspecified) [Mecamylamine hydrochloride], the HCT116-GFP viability worked out at 94.7%.

Turning to `C=C(NC(=O)C(=C)NC(=O)c1csc(C2=N[C@@H]3c4csc(n4)[C@H]4NC(=O)c5csc(n5)[C@H]([C@](C)(O)[C@@H](C)O)NC(=O)[C@H]5CSC(=N5)/C(=C/C)NC(=O)[C@H]([C@@H](C)O)NC(=O)c5csc(n5)[C@]3(CC2)NC(=O)[C@H](C)NC(=O)C(=C)NC(=O)[C@H](C)NC(=O)[C@H]([C@@H](C)CC)N[C@@H]2C=Cc3c([C@H](C)O)cc(nc3[C@H]2O)C(=O)O[C@@H]4C)n1)C(N)=O` [Thiostrepton], the HCT116-GFP viability was 2.37%.

`CC(=C(CCO)SSCC1CCCO1)N(C=O)Cc1cnc(C)nc1N` (stereo in doubt) [Fursultiamine Hydrochloride]: the HCT116-GFP viability amounted to 113%.

On to `CCC(C)(CN(C)C)OC(=O)c1ccccc1` (stereo unspecified) [Amyleine hydrochloride], for which the HCT116-GFP viability worked out at 108%.

As to `NC(=O)c1cccnc1` [Nicotinamide], the HCT116-GFP viability amounted to 111%.

As to `Cn1c(=O)c2c(ncn2CC(O)CO)n(C)c1=O` (stereo unspecified) [Diprophylline], the HCT116-GFP viability worked out at 106%.

Consider `CC(C)(Oc1ccc(C2CC2(Cl)Cl)cc1)C(=O)O` (stereo unspecified) [Ciprofibrate], for which the HCT116-GFP viability is 106%.

As to `CC1=C(C(=O)O)N2C(=O)[C@@H](NC(=O)[C@H](N)c3ccc(O)cc3)[C@H]2SC1` [Cefadroxil], the HCT116-GFP viability is 87.1%.

In the case of `C=CCN1CCCC1CNC(=O)c1cc2nn[nH]c2cc1OC` (stereo unspecified) [Alizapride hydrochloride], the HCT116-GFP viability turned out to be 112%.

Turning to `CNCC[C@@H](Oc1cccc2ccccc12)c1cccs1` [(R)-Duloxetine hydrochloride], the HCT116-GFP viability was found to be 62.8%.

For `CC(CCc1ccc(O)cc1)NCCc1ccc(O)c(O)c1` (stereo unspecified) [Dobutamine hydrochloride], the HCT116-GFP viability worked out at 85.6%.

`Nc1ccc(S(N)(=O)=O)cc1` [Sulfanilamide]: the HCT116-GFP viability was 124%.

With `CCC(C)(C)c1ccc(CC(C)CN2C[C@@H](C)O[C@@H](C)C2)cc1` (stereo partly specified) [Amorolfine hydrochloride], the HCT116-GFP viability turned out to be 83.6%.

On to `CC[C@]12CCCN3CCc4c(n(c5ccccc45)[C@@](O)(C(=O)OC)C1)[C@@H]32` [Vincamine], for which the HCT116-GFP viability amounted to 92.8%.

As to `CC[C@@]1(O)C(=O)OCc2c1cc1n(c2=O)Cc2cc3c(CN(C)C)c(O)ccc3nc2-1` [Topotecan], the HCT116-GFP viability was determined as 2.84%.

Take `Nc1nnc(-c2cccc(Cl)c2Cl)c(N)n1` [Lamotrigine]: the HCT116-GFP viability turned out to be 104%.

Take `Clc1cc(Cl)c(OCC#CI)cc1Cl` [Haloprogin]: the HCT116-GFP viability stood at 4.26%.

As for `Nc1nc(=O)[nH]cc1F` [Flucytosine], the HCT116-GFP viability stood at 87.9%.

Take `Cc1cccc(C)c1NC(=O)CN1CCN(CCCC(c2ccc(F)cc2)c2ccc(F)cc2)CC1` [Lidoflazine]: the HCT116-GFP viability came out at 87.4%.

As for `CC(=O)O[C@]1(C(C)=O)CC[C@H]2[C@@H]3C=C(C)C4=CC(=O)CC[C@]4(C)[C@H]3CC[C@@]21C` [Megestrol acetate], the HCT116-GFP viability was determined as 97.9%.

Turning to `CC(C)(C)NCC(O)COc1cccc2c1CC(O)C(O)C2` (stereo unspecified) [Nadolol], the HCT116-GFP viability turned out to be 102%.

As to `CCOCCn1c(N2CCCN(C)CC2)nc2ccccc21` [Emedastine], the HCT116-GFP viability turned out to be 98.6%.

`CC[C@H](C)C(=O)O[C@H]1C[C@H](O)C=C2C=C[C@H](C)[C@H](CC[C@@H](O)C[C@@H](O)CC(=O)O)[C@H]21` [Pravastatin]: the HCT116-GFP viability was determined as 93.4%.

As to `Cc1cccn2c(=O)c(-c3nnn[nH]3)cnc12` [Pemirolast potassium], the HCT116-GFP viability turned out to be 97.2%.

As to `CC(=O)NC[C@H]1CN(c2ccc(N3CCOCC3)c(F)c2)C(=O)O1` [Linezolid], the HCT116-GFP viability is 83.4%.
